This is an account of results in PubChem BioAssay AID360 (National Center for Advancing Translational Sciences (NCATS), 2006).

Each structure is given as a SMILES string. About 550 (1.1%) of roughly 48,000 compounds were called active. About 4% were inconclusive and are not listed. No stated cut-off is given here; in the data, active means potency below about 15 µM; inconclusive means mostly about 16 µM to 33 µM; inactive means weaker than that. The list shows a part of the results.
Potency means the concentration at half of the fitted maximal effect.

This assay addresses Lysosomal acid glucosylceramidase (Homo sapiens) (UniProt P04062). Nature of the assay: Glucocerebrosidase.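 Further: the screen sought inhibitors.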 Particulars: purified enzyme, resorufin glucoside fluorescence (screen aimed at inhibitors), 20 min; series mostly up to 77 µM. The procedure, abridged: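 Compounds titrated against 0.2 nM normal enzyme, 30 uM resorufin beta-D-glucopyranoside substrate, citrate/phosphate buffer with taurocholate and tween-20, pH 5.9. Reaction ran 20 min at room temperature; fluorescence (Ex 548/Em 600) gave AC50.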
Chain of UniProt P04062 (P04062 whole entry, looked up): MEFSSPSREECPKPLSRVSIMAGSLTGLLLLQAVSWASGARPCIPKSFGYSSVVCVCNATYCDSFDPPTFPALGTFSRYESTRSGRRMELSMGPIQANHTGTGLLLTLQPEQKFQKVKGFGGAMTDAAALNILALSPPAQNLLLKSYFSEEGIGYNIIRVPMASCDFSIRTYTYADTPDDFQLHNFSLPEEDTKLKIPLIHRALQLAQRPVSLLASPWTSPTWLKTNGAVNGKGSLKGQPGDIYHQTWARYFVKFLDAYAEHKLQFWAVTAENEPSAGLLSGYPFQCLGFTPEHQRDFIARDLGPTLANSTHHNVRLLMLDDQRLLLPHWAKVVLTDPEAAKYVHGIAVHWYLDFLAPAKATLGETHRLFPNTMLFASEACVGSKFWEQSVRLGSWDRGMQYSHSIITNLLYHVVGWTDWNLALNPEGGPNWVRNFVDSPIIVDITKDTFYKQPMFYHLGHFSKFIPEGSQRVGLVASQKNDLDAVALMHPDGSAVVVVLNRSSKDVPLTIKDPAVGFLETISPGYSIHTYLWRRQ
Consider `Cc1cc(C)c2c(=O)[nH]c(SCC(=O)Nc3ccccc3)nc2n1`, for which the Potency was inactive: > 76.9 µM.
As to `CC(C)C(NC(=O)c1cccs1)C(=O)NC1=NCCS1` (centres undefined), the Potency is inactive: > 76.9 µM.
In the case of `CC1(C)CC(NC(=O)CCc2ccccc2)CC(C)(C)N1`, the Potency is inactive: > 76.9 µM.
Turning to `COc1ccc(CN2CCCC(C(=O)N3CCCC3)C2)cc1` (centres undefined), the Potency was inactive: > 76.9 µM.
Consider `Cc1ccc(CNC(=O)CNS(=O)(=O)c2cccc3nsnc23)cc1`, for which the Potency is inactive: > 76.9 µM.
`CCCCOC(=O)CSc1nc2c(c(=O)[nH]c(=O)n2C)n1C/C=C(\C)Cl`: the Potency was inactive: > 76.9 µM.
Take `COC(=O)C1=C(C)N=C2SCCC(=O)N2C1c1ccc(C(=O)OC)cc1` (centres undefined): the Potency was inactive: > 76.9 µM.
Take `CCSc1nnc(NC(=O)c2csc3c2CCC(C)C3)s1` (centres undefined): the Potency is inactive: > 76.9 µM.
Then `CC(Sc1nnc2ccccn12)C(=O)Nc1ccc(Cl)cn1` (centres undefined), with inactive: > 76.9 µM; and `Cc1nc2ccccc2c(=O)n1CCCn1ccnc1`, with inactive: > 76.9 µM.
As for `Cc1ccc2[nH]c(=O)c(-c3noc(-c4ccncc4)n3)cc2c1`, the Potency was inactive: > 76.9 µM.
`CSc1nsc(SC)c1C(=O)N1CCN(S(=O)(=O)c2ccc(C)cc2)C1C` (centres undefined): the Potency was inactive: > 76.9 µM.
Consider `COc1ccc(NC(=O)COc2ccccc2)c(OC)c1`, for which the Potency is inactive: > 76.9 µM.
Take `c1ccc2oc(NC3=NCN(CC4CCCO4)CN3)nc2c1` (centres undefined): the Potency is inactive: > 76.9 µM.
As to `Cc1c(NC(=O)C(C)OC(=O)c2cc3c4ccccc4n(C)c3s2)c(=O)n(-c2ccccc2)n1C` (centres undefined), the Potency was inactive: > 76.9 µM.
Take `CC1Cc2cc(/C(O)=C3/C(=O)C(=O)N(CCCN(C)C)C3c3ccncc3)ccc2O1` (centres undefined): the Potency is inactive: > 76.9 µM.
Turning to `COC(=O)c1cc(NCc2cccs2)ccc1N1CCOCC1`, the Potency is inactive: > 76.9 µM.
In the case of `CCOc1ccc(N(CC(=O)O)S(=O)(=O)c2ccc(F)cc2)cc1`, the Potency is inactive: > 76.9 µM.
Then `C=CCn1c(SCc2ccc(OC)cc2)nnc1-c1cccnc1`, with inactive: > 76.9 µM; and `CCN(CC(F)(F)C(F)F)S(=O)(=O)c1ccc(NC(=O)OC)cc1`, with inactive: > 76.9 µM; and `Cc1cc2c(c(=O)o1)C1(C(=O)N(C)c3ccccc31)C(C#N)=C(N)O2` (centres undefined), with inactive: > 76.9 µM.
`OC(c1ccccc1)C1CN(Cc2ccccc2)CCC1(O)c1ccccc1` (centres undefined): the Potency was inactive: > 76.9 µM.
Then `O=C(CCCC(=O)OCC(=O)NC1CCCC1)Nc1ccccn1`, with inactive: > 76.9 µM; and `CCCCNC(=O)c1sc(=S)n2c1[nH]c(=O)c1ccccc12`, with inactive: > 76.9 µM.
Consider `CN1CCN(C2=NC3(CCCC3)C(C#N)C(=O)N2)CC1` (centres undefined), for which the Potency was inactive: > 76.9 µM.
Consider `CC1(C)C2CCC1(C)C(NC1=NCCC1)C2` (centres undefined), for which the Potency is inactive: > 76.9 µM.
Regarding `CCc1cc(-c2[nH]ncc2-c2ccc3c(c2)OCO3)c(O)cc1O`, the Potency is inactive: > 76.9 µM.
The figure for `O=C(C1CCCN(S(=O)(=O)c2ccc(Cl)cc2)C1)N(Cc1cccs1)C1CC1` (centres undefined) is inactive: > 76.9 µM; for `CCOC(=O)c1c(-c2ccncc2)csc1N` it is inactive: > 76.9 µM.
The figure for `CCOCc1nnc(NC(=O)CSc2ccccc2)s1` is inactive: > 76.9 µM; for `Cc1cc(NC(=O)CCCOc2ccc(Cl)cc2Cl)no1` it is inactive: > 76.9 µM; for `CCCN(CCC)CCCNC(=O)c1ccc2c(c1)N(CC)C(=O)c1ccccc1S2=O` (centres undefined) it is inactive: > 76.9 µM.
Turning to `NC(=O)C1(c2ccccc2)CCOCC1`, the Potency was inactive: > 76.9 µM.
Turning to `CC1CCCCN1Cc1nc2c(c(=O)n(C)c(=O)n2C)n1CCCc1ccccc1` (centres undefined), the Potency was inactive: > 76.9 µM.
For `COc1ccc(OC)c(NC(=O)CN(c2ccc(OC)c(Cl)c2)S(C)(=O)=O)c1`, the Potency is inactive: > 76.9 µM.
On to `Cc1noc(C)c1CSc1ccc2ccccc2n1`, for which the Potency was inactive: > 76.9 µM.
The figure for `Cc1ccccc1Cn1ccc(NC(=O)c2cnn3c(C(F)(F)F)cc(-c4ccco4)nc23)n1` is inactive: > 76.9 µM; for `CCC(=O)OC1CSc2nc3ccccc3n2C1` (centres undefined) it is inactive: > 76.9 µM.
With `Cc1ccc(S(=O)(=O)Nc2cc(C(=O)O)ccc2N2CCCCC2)cc1`, the Potency is inactive: > 76.9 µM.
For the molecule `Cc1cc(C)n(-c2nc3ccccc3c(=O)n2OCC(=O)N(C)C)n1`, the Potency was inactive: > 76.9 µM.
Then `COc1ccccc1-n1c(SCC(=O)N2CCOCC2)nc(O)c(Cc2ccccc2)c1=O`, with inactive: > 76.9 µM; and `N#Cc1c(NC(=O)CCn2cnc3ccccc3c2=O)oc(-c2ccccc2)c1-c1ccccc1`, with inactive: > 76.9 µM; and `COc1ccc(C)cc1S(=O)(=O)N1CCCCC1`, with inactive: > 76.9 µM.
Turning to `COc1ccc(CNc2ccc(S(N)(=O)=O)cc2)c(OC)c1OC`, the Potency was inactive: > 76.9 µM.
Consider `COc1ccccc1NC(=O)CN1CCN(c2ccccc2F)CC1`, for which the Potency is inactive: > 76.9 µM.
Take `Cc1onc(-c2ccccc2)c1C(=O)N1CCN(CCc2ccccc2)CC1`: the Potency is inactive: > 76.9 µM.
As for `Cc1noc(C)c1C(=O)NC1CCCc2ccccc21` (centres undefined), the Potency was inactive: > 76.9 µM.
Consider `O=C(Cn1[nH]c(=O)c2ccccc2c1=O)NCc1cccnc1`, for which the Potency is inactive: > 76.9 µM.
`CCOC(=O)CSc1nnc(-c2cccnc2)n1Cc1ccccc1`: the Potency is inactive: > 76.9 µM.
For `O=C(CCSc1nnc2scc(-c3ccccc3)n12)Nc1nc(-c2ccccc2)ns1`, the Potency is inactive: > 76.9 µM.
Take `Cc1oc(-c2ccc3c(c2)OCCO3)cc1C(=O)NC(CCC(=O)O)C(=O)O` (centres undefined): the Potency was inactive: > 76.9 µM.
`CCOc1ccc(-c2nnc3ccc(SCC(=O)N4CCN(c5ccccc5)CC4)nn23)cc1`: the Potency is inactive: > 76.9 µM.
As for `CCc1c(C)sc(NC(=O)c2cnn3cccnc23)c1C#N`, the Potency is inactive: > 76.9 µM.
Take `Cc1nnc(NC(=O)CN2C(=O)c3ccccc3S2(=O)=O)s1`: the Potency was inactive: > 76.9 µM.
`COc1ccccc1N1CCN(C(=O)c2ccc3nc(-c4ccco4)c(-c4ccco4)nc3c2)CC1`: the Potency is inactive: > 76.9 µM.
The figure for `CCOC(=O)Cn1c(=N)n(Cc2ccccc2)c2ccccc21` is inactive: > 76.9 µM; for `CCOC(=O)c1ccc2c(c1)nc(SCC(=O)N1CCCCC1)n2CC` it is inactive: > 76.9 µM.
For `Cc1nc2ccc(S(=O)(=O)NCC(=O)N3CCN(c4ccccn4)CC3)cc2s1`, the Potency is inactive: > 76.9 µM.
For `O=C(O)c1ccc(C2SCC(=O)N2Cc2ccccc2)cc1` (centres undefined), the Potency is inactive: > 76.9 µM.
Consider `CCOc1cc(C2Nc3ccccc3C(=O)N2c2ccccc2)ccc1O` (centres undefined), for which the Potency was inactive: > 76.9 µM.
Regarding `C/C(=C1/SC(N2CCOCC2)=NC1=O)c1ccc(Cl)cc1`, the Potency was inactive: > 76.9 µM.
As for `CCCn1c(C(O)c2ccc3c(c2)OCO3)nc2ccccc21` (centres undefined), the Potency was inactive: > 76.9 µM.
The figure for `Cc1cc(-c2cccs2)c2c(n1)sc1c(=O)[nH]c(=O)[nH]c12` is inactive: > 76.9 µM.
As to `O=C(CSc1nc(-c2ccccc2)cc(=O)[nH]1)N1CCOCC1`, the Potency was inactive: > 76.9 µM.
Turning to `Cc1ccc(OCc2nnc(SCc3cc(=O)[nH]c4ccccc34)o2)cc1`, the Potency result is “inactive”.
Consider `CCOC(=O)c1[nH]c(C)c(C(=O)Nc2ccc3c(c2)OCCO3)c1C`, for which the Potency is inactive: > 76.9 µM.
Consider `CCN(CC)c1ccc(NC(=O)CCCCCN2C(=O)c3ccccc3C2=O)cc1`, for which the Potency was inactive: > 76.9 µM.
As for `CC1(C)CC2CC(C)(CN2C(=O)COC(=O)Cn2[nH]c(=O)c3ccccc3c2=O)C1` (centres undefined), the Potency was inactive: > 76.9 µM.
The figure for `COC(=O)c1ccc(NC(=O)C2CCCN2S(=O)(=O)c2ccc(F)cc2)cc1` (centres undefined) is inactive: > 76.9 µM; for `O=C(c1ccco1)[C@@H]1[C@@H]2C(=O)N(c3ccc(F)cc3)C(=O)[C@@H]2C2c3ccccc3C=CN21` (some centres undefined) it is inactive: > 76.9 µM; for `CCOC(=O)C1CCCN(C(=O)c2ccc(CS(=O)(=O)Cc3ccccc3C)o2)C1` (centres undefined) it is inactive: > 76.9 µM.
In the case of `CCC(=O)Nc1cc(-c2nnc(OC)c3ccccc23)ccc1N1CCOCC1`, the Potency was inactive: > 76.9 µM.
Then `Cc1cccc2cc(C#N)c(NCCNC(=O)NC3CCCCC3)nc12`, with inactive: > 76.9 µM; and `CN(Cc1ccccc1)Cc1nc2c([nH]1)c(=O)n(C)c(=O)n2C`, with inactive: > 76.9 µM; and `O=C(NCc1cccs1)C1CCN(c2nccs2)CC1`, with inactive: > 76.9 µM.
Then `c1ccc(-c2nn3c(-c4ccccc4)nnc3s2)cc1`, with inactive: > 76.9 µM.
In the case of `Cc1cc(C(=O)c2cccs2)c(N)s1`, the Potency is inactive: > 76.9 µM.
The figure for `COc1ccc(C2C(C(=O)c3sc(C)nc3C)=C(O)C(=O)N2CCN2CCOCC2)cc1` (centres undefined) is inactive: > 76.9 µM.
Turning to `CCc1c(C)sc(NC(=O)c2cc(-c3cc(OC)ccc3OC)on2)c1C#N`, the Potency is inactive: > 76.9 µM.
Turning to `CN(C)S(=O)(=O)CC12CCC(CC1=O)C2(C)C` (centres undefined), the Potency was inactive: > 76.9 µM.
Consider `c1ccc(-n2nc3c(ccc4cnnc43)[nH]2)cc1`, for which the Potency result is “inactive”.
The figure for `CSc1nc(C)cc(OCNC(=O)c2cccs2)n1` is inactive: > 76.9 µM; for `CCOc1ccc(NC(=O)CN(C)c2nnnn2-c2ccccc2)cc1OCC` it is inactive: > 76.9 µM; for `CCCCn1c(NC(=O)c2ccccc2)c(C#N)c2nc3ccccc3nc21` it is inactive: > 76.9 µM.
For `COc1ccc(OC)c(C2C(C#N)=C(N)Oc3c2c(C)nn3-c2cccc(Cl)c2)c1` (centres undefined), the Potency is inactive: > 76.9 µM.
Take `Cc1cc(-n2c(C)cc(C(=O)COC(=O)CN=C3NS(=O)(=O)c4ccccc43)c2C)no1`: the Potency was inactive: > 76.9 µM.
On to `CCn1cc(C(=O)N2CC(C)CC(C)C2)c(=O)c2cc(S(=O)(=O)N3CCOCC3)ccc21` (centres undefined), for which the Potency was inactive: > 76.9 µM.
Then `CCOC(=O)c1ccc(NC(=O)C2C3CCC(C3)C2C(=O)O)cc1` (centres undefined), with inactive: > 76.9 µM; and `Fc1cccc(Cl)c1Cn1nnc2c(N3CCC4(CC3)OCCO4)ncnc21`, with inactive: > 76.9 µM.
